The values that follow come from ChEMBL document CHEMBL4888484, “Replenishing the malaria drug discovery pipeline: Screening and hit evaluation of the MMV Hit Generation Library 1 (HGL1) against asexual blood stage Plasmodium falciparum ,using a nano luciferase reporter read-out” (2022).

Screen size: about 150,000 compounds; about 540 (0.36%) showed an effect of 50% or more. Some of the results follow.

The test system of this assay is Plasmodium falciparum. Description: Primary screen in NF54 nanoGlo assay, in single point, at 2uM, 72h; a lower Z score goes with more inhibition. The class given is functional, Erythrocyte. As to conditions: timepoint 72 hour.
For `Cc1ccc(Cc2ccccc2C(=O)N2CCC3(CC2)[C@H](O)C[C@@H]3O)cc1F`, the “% Inhibition” value was found to be 2% and the Z score is -0.36.

In the case of `O[C@@H]1C[C@H](O)C12CCN(c1nccc(C(F)(F)F)n1)CC2`, the “% Inhibition” value is -7% and the Z score stood at 1.47.

Take `Cc1ccc(-n2nc3c([n+]2[O-])CCc2c-3no[n+]2[O-])cc1`: the “% Inhibition” value was -2% and the Z score came to 0.3.

With `CN(C)S(=O)(=O)c1ccc(C(=O)NCc2nc(-c3cnn(C)c3)no2)cc1`, the “% Inhibition” value is given as -19% and the Z score is given as 2.39.

Take `CCc1cc(C(=O)Nc2nc3c(s2)CS(=O)(=O)CC3)n(C)n1`: the “% Inhibition” value turned out to be 9% and the Z score is -1.68.

For `COC(=O)CC(C)(C)CC(=O)Nc1cccc(-c2ncn(C)n2)c1`, the “% Inhibition” value is -13% and the Z score amounted to 1.79.

Turning to `O=C(c1cnn(CCN2CCCCC2)c1)N1CC2CCC1C2` (configuration not stated), the “% Inhibition” value is listed as 1% and the Z score is given as -0.14.

With `Cc1ccc(CC2CN(C(=O)NCCc3cccc(C(F)(F)F)n3)C2)cc1`, the “% Inhibition” value was 19% and the Z score is -2.36.

For the compound `COc1ccc([C@@H]2CCCN2C(=O)Cn2ccccc2=O)cc1OC`, the “% Inhibition” value is reported as -2% and the Z score is given as 0.15.

For `Cn1cc(S(=O)(=O)N2CCc3sc(Cl)cc3C2)cn1`, the “% Inhibition” value is reported as -10% and the Z score is listed as 1.17.

For `Cc1nnc(-c2ccccc2NC(=O)c2ccc3ccccc3n2)o1`, the “% Inhibition” value is listed as -8% and the Z score stood at 1.03.

Take `Cc1cnc(NC[C@H]2CCCN(Cc3ccco3)C2)nc1`: the “% Inhibition” value is on record as -12% and the Z score came to 2.17.

For `COc1ccc2ncn(C[C@H]3CN(C)CCN3C)c(=O)c2c1`, the “% Inhibition” value is listed as -14% and the Z score came out at 2.54.

Take `CCC(C)C(NC(=O)OC(C)(C)C)c1nnc(S(=O)(=O)Cc2ccccc2F)o1` (configuration not stated): the “% Inhibition” value is reported as -10% and the Z score is reported as 0.86.

As to `CCCOC(=O)NC[C@@H]1C[C@H](F)CN1C(=O)CCn1cc(Cl)cn1`, the “% Inhibition” value was -20% and the Z score was 2.62.

As to `O=C1N[C@@H](c2ccc(-n3ccnc3)cc2)Nc2ccccc21`, the “% Inhibition” value is reported as 13% and the Z score is reported as -1.55.

Take `CC(C)(CNC(=O)N[C@@H]1CCOc2c(F)cccc21)C1=CCOCC1`: the “% Inhibition” value is listed as -1% and the Z score is 0.09.

`Cc1nnc(N2CCC3(CC2)[C@H](O)C[C@@H]3OCCO)s1`: the “% Inhibition” value was determined as 7% and the Z score is -1.36.

As for `CN(Cc1ccco1)C(=O)c1cnn(-c2ccccc2)c1`, the “% Inhibition” value is reported as 0% and the Z score was 0.02.

As for `CC(C)Cn1cnnc1[C@@H]1CCCN1Cc1cc(=O)n(C)c(=O)n1C`, the “% Inhibition” value is on record as 25% and the Z score is -3.28.

In the case of `O=C(Nc1nc(C2CC2)cs1)C1CCN(c2nccs2)CC1`, the “% Inhibition” value is listed as -8% and the Z score came to 0.97.

As to `Cc1ccc(S(=O)(=O)NC[C@H]2OC[C@@H](NC3CCC(F)(F)CC3)[C@@H]2O)cc1`, the “% Inhibition” value is reported as -6% and the Z score is listed as 0.99.

Consider `CC(CN1C(C(=O)O)CC2CCCCC21)c1cccc(Cl)c1` (configuration not stated), for which the “% Inhibition” value worked out at 4% and the Z score was -0.51.

As to `Cc1ccc2oc(C(=O)N3COCC[C@H]3c3ccccc3)cc2n1`, the “% Inhibition” value amounted to 13% and the Z score is -1.28.

Turning to `CCOC(=O)Cc1csc(NC(=O)CN2CCOCC2)n1`, the “% Inhibition” value turned out to be 13% and the Z score is reported as -1.85.

For the compound `CC(C)(NC(=O)CCc1cn[nH]c1)c1nc2ccccc2s1`, the “% Inhibition” value is reported as -11% and the Z score turned out to be 1.8.

Consider `Cc1nc(CNC(=O)[C@@H]2CC[C@H](NS(=O)(=O)c3ccccc3C)C2)cs1`, for which the “% Inhibition” value is given as -10% and the Z score is listed as 2.05.

As for `CN[C@@H](C(=O)N1CCOC(C)(C)C1)c1cnn(C)c1`, the “% Inhibition” value is on record as -2% and the Z score is 0.31.

Take `O=C(NCCn1ccc(C(F)(F)F)n1)C1CCC1`: the “% Inhibition” value is recorded as -9% and the Z score turned out to be 1.73.

On to `O=C(Cn1cc(-c2ccc(F)cc2)cn1)NCc1ccc(-c2ccoc2)nc1`, for which the “% Inhibition” value is recorded as 13% and the Z score is -1.74.

On to `Cc1n[nH]c(C)c1CCN(C)C[C@]1(c2ccccc2)CCOC1`, for which the “% Inhibition” value is reported as -1% and the Z score worked out at 0.2.

Consider `Cc1cccc(CC(=O)Nc2cnn(-c3cccc(C(=O)N[C@@H](C)Cc4ccsc4)c3)c2)c1`, for which the “% Inhibition” value was determined as 19% and the Z score was -2.37.

With `N#CCCN(C(=O)c1ccc2c(c1)CCCC2)C1CCOCC1`, the “% Inhibition” value is -9% and the Z score amounted to 1.26.

Take `CC(=O)c1cc(C(=O)N2CCCCC[C@H]2c2noc(C(C)C)n2)n(C)c1`: the “% Inhibition” value is given as -4% and the Z score is 0.54.

As to `Cc1nc(C)c(S(=O)(=O)N[C@@H](C)c2ccc(Cl)cn2)s1`, the “% Inhibition” value was -5% and the Z score came out at 0.88.

In the case of `Cc1noc(C)c1CC(=O)N[C@H]1CC[C@H](Oc2nccnc2C#N)CC1`, the “% Inhibition” value is -16% and the Z score came out at 1.8.

For the compound `CC(C)c1ccc([C@@H]2CC(=O)c3c(nc4c(cnn4-c4cccc(F)c4)c3N)C2)cc1`, the “% Inhibition” value was -2% and the Z score turned out to be 0.25.

As for `O=C(c1ccc(-c2ccccc2)cc1)N1C[C@@H](CN2CCCCC2)[C@@H](CO)C1`, the “% Inhibition” value turned out to be 4% and the Z score is -0.59.

Consider `COc1ccc(-c2nc(C)c(C(=O)N3CCC[C@H]3c3nnc4ccccn34)s2)cc1`, for which the “% Inhibition” value came out at 1% and the Z score was -0.16.

As for `Cc1ccc(NC(=O)NC(=O)Cn2ccc(=O)c3sccc32)cc1C`, the “% Inhibition” value is 34% and the Z score is recorded as -4.37.

For `Cc1nc(C)c(C(=O)Nc2ccc(N3CCCC3)c3ncccc23)o1`, the “% Inhibition” value was 1% and the Z score was -0.11.
